# Experimental data from the supplement of paper PMC11741623.
# Some of the results follow. Interaction screen of human proteins with wild-type SARS-CoV-2 proteins by split-DHFR complementation in yeast, 1 µg/mL methotrexate. Value = fitness of the pair (three or more lineages) minus that of the viral protein without a human partner, on a scale set by negative (0) and fused positive (1) controls, mean of up to three cultures; higher = more likely to interact. Active = false discovery rate below 0.05 (one-sided t-test) in at least one culture. Nearly all pairs are not hits, and differences among them are mostly noise (correlation between cultures about 0.3); most hits were seen in one culture only. Human sequences are the Swiss-Prot entries looked up by gene name; the clone may be another isoform. NSP2 values were corrected by the authors for a growth advantage. Listed are human proteins with a hit and a random twelfth of the others.
# B1: FA2H, Q7L5A8 (protein)
# chain: MAPAPPPAASFSPSEVQRRLAAGACWVRRGARLYDLSSFVRHHPGGEQLLRARAGQDISADLDGPPHRHSANARRWLEQYYVGELRGEQQGSMENEPVALEETQKTDPAMEPRFKVVDWDKDLVDWRKPLLWQVGHLGEKYDEWVHQPVTRPIRLFHSDLIEGLSKTVWYSVPIIWVPLVLYLSWSYYRTFAQGNVRLFTSFTTEYTVAVPKSMFPGLFMLGTFLWSLIEYLIHRFLFHMKPPSDSYYLIMLHFVMHGQHHKAPFDGSRLVFPPVPASLVIGVFYLCMQLILPEAVGGTVFAGGLLGYVLYDMTHYYLHFGSPHKGSYLYSLKAHHVKHHFAHQKSGFGISTKLWDYCFHTLTPEKPHLKTQ
# B2: CHCHD2, Q9Y6H1 (protein)
# chain: MPRGSRSRTSRMAPPASRAPQMRAAPRPAPVAQPPAAAPPSAVGSSAAAPRQPGLMAQMATTAAGVAVGSAVGHTLGHAITGGFSGGSNAEPARPDITYQEPQGTQPAQQQQPCLYEIKQFLECAQNQGDIKLCEGFNEVLKQCRLANGLA
# B3: TMC6, Q7Z403 (protein)
# chain: MAQPLAFILDVPETPGDQGQGPSPYDESEVHDSFQQLIQEQSQCTAQEGLELQQREREVTGSSQQTLWRPEGTQSTATLRILASMPSRTIGRSRGAIISQYYNRTVQLRCRSSRPLLGNFVRSAWPSLRLYDLELDPTALEEEEKQSLLVKELQSLAVAQRDHMLRGMPLSLAEKRSLREKSRTPRGKWRGQPGSGGVCSCCGRLRYACVLALHSLGLALLSALQALMPWRYALKRIGGQFGSSVLSYFLFLKTLLAFNALLLLLLVAFIMGPQVAFPPALPGPAPVCTGLELLTGAGCFTHTVMYYGHYSNATLNQPCGSPLDGSQCTPRVGGLPYNMPLAYLSTVGVSFFITCITLVYSMAHSFGESYRVGSTSGIHAITVFCSWDYKVTQKRASRLQQDNIRTRLKELLAEWQLRHSPRSVCGRLRQAAVLGLVWLLCLGTALGCAVAVHVFSEFMIQSPEAAGQEAVLLVLPLVVGLLNLGAPYLCRVLAALEPHDSPVLEVYVAICRNLILKLAILGTLCYHWLGRRVGVLQGQCWEDFVGQELYRFLVMDFVLMLLDTLFGELVWRIISEKKLKRRRKPEFDIARNVLELIYGQTLTWLGVLFSPLLPAVQIIKLLLVFYVKKTSLLANCQAPRRPWLASHMSTVFLTLLCFPAFLGAAVFLCYAVWQVKPSSTCGPFRTLDTMYEAGRVWVRHLEAAGPRVSWLPWVHRYLMENTFFVFLVSALLLAVIYLNIQVVRGQRKVICLLKEQISNEGEDKIFLINKLHSIYERKEREERSRVGTTEEAAAPPALLTDEQDA
# B4: HLA-DPB1, P04440 (protein)
# chain: MMVLQVSAAPRTVALTALLMVLLTSVVQGRATPENYLFQGRQECYAFNGTQRFLERYIYNREEFARFDSDVGEFRAVTELGRPAAEYWNSQKDILEEKRAVPDRMCRHNYELGGPMTLQRRVQPRVNVSPSKKGPLQHHNLLVCHVTDFYPGSIQVRWFLNGQEETAGVVSTNLIRNGDWTFQILVMLEMTPQQGDVYTCQVEHTSLDSPVTVEWKAQSDSARSKTLTGAGGFVLGLIICGVGIFMHRRSKKVQRGSA
# B5: PRSS2, P07478 (protein)
# chain: MNLLLILTFVAAAVAAPFDDDDKIVGGYICEENSVPYQVSLNSGYHFCGGSLISEQWVVSAGHCYKSRIQVRLGEHNIEVLEGNEQFINAAKIIRHPKYNSRTLDNDILLIKLSSPAVINSRVSAISLPTAPPAAGTESLISGWGNTLSSGADYPDELQCLDAPVLSQAECEASYPGKITNNMFCVGFLEGGKDSCQGDSGGPVVSNGELQGIVSWGYGCAQKNRPGVYTKVYNYVDWIKDTIAANS
# B6: ACOT13, Q9NPJ3 (protein)
# chain: MTSMTQSLREVIKAMTKARNFERVLGKITLVSAAPGKVICEMKVEEEHTNAIGTLHGGLTATLVDNISTMALLCTERGAPGVSVDMNITYMSPAKLGEDIVITAHVLKQGKTLAFTSVDLTNKATGKLIAQGRHTKHLGN
# Target: SARS-CoV-2 N
# Experiment: yeast fitness gain over the viral ORF with no human partner (scaled fitness); higher = more likely to interact
# Protocol: (§1)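 Split mouse DHFR complementation in pooled diploid yeast: human ORFeome clones carry one fragment and viral ORFs the other; barcoded lineages compete in 1 µg/mL methotrexate and fitness is read by barcode sequencing in up to three cultures.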
row,Binder,yeast fitness gain
1,B1,inactive: -0.0528
2,B2,inactive: 0.0844
3,B3,inactive: -0.0294
4,B4,inactive: -0.139
5,B5,inactive: 0.166
6,B6,inactive: -0.0359

# Target: SARS-CoV-2 NSP14
# Experiment: as above
# Protocol: as §1
row,Binder,yeast fitness gain
1,B1,inactive: 0.0807
2,B2,inactive: -0.177
3,B5,inactive: -0.0869

# Target: SARS-CoV-2 NSP4
# Experiment: as above
# Protocol: as §1
row,Binder,yeast fitness gain
1,B1,inactive: 0.138
2,B2,inactive: 0.146

# Target: SARS-CoV-2 NSP9
# Experiment: as above
# Protocol: as §1
row,Binder,yeast fitness gain
1,B1,inactive: 0.0631
2,B2,inactive: 0.189
3,B5,inactive: -0.0268

# Target: SARS-CoV-2 ORF3A
# Experiment: as above
# Protocol: as §1
row,Binder,yeast fitness gain
1,B1,inactive: 0.0951
2,B2,inactive: -0.0892
3,B4,inactive: 0.0522
4,B5,inactive: 0.00355

# Target: SARS-CoV-2 NSP15
# Experiment: as above
# Protocol: as §1
row,Binder,yeast fitness gain
1,B2,inactive: -0.00931
2,B6,inactive: -0.0136

# Target: SARS-CoV-2 NSP16
# Experiment: as above
# Protocol: as §1
row,Binder,yeast fitness gain
1,B2,inactive: 0.0379
2,B3,inactive: 0.00736
3,B4,inactive: 0.128
4,B5,inactive: 0.0145
5,B6,inactive: -0.371

# Target: SARS-CoV-2 NSP5
# Experiment: as above
# Protocol: as §1
row,Binder,yeast fitness gain
1,B2,inactive: 0.0327
2,B3,inactive: -0.0091
3,B6,inactive: 0.0102

# Target: SARS-CoV-2 NSP7
# Experiment: as above
# Protocol: as §1
row,Binder,yeast fitness gain
1,B2,inactive: -0.0588
2,B3,inactive: -0.1
3,B4,inactive: -0.0758
4,B6,inactive: -0.192

# Target: SARS-CoV-2 NSP8
# Experiment: as above
# Protocol: as §1
row,Binder,yeast fitness gain
1,B2,inactive: 0.0816
2,B4,inactive: 0.0525
3,B6,inactive: 0.00777

# Target: SARS-CoV-2 ORF10
# Experiment: as above
# Protocol: as §1
row,Binder,yeast fitness gain
1,B2,inactive: 0.0323
2,B6,inactive: -0.0484

# Target: SARS-CoV-2 ORF6
# Experiment: as above
# Protocol: as §1
row,Binder,yeast fitness gain
1,B2,inactive: 0.0218
2,B3,inactive: -0.0584
3,B6,inactive: 0.0339

# Target: SARS-CoV-2 ORF7A
# Experiment: as above
# Protocol: as §1
row,Binder,yeast fitness gain
1,B2,inactive: 0.103
2,B4,inactive: -0.0359
3,B6,inactive: 0.034

# Target: SARS-CoV-2 ORF9B
# Experiment: as above
# Protocol: as §1
row,Binder,yeast fitness gain
1,B2,inactive: 0.0134
2,B6,inactive: -0.0943

# Target: SARS-CoV-2 ORF9Bwu (the 73-codon ORF)
# Experiment: as above
# Protocol: as §1
row,Binder,yeast fitness gain
1,B2,inactive: -0.0632
2,B4,inactive: -0.0968

# Target: SARS-CoV-2 ORF3B
# Experiment: as above
# Protocol: as §1
row,Binder,yeast fitness gain
1,B3,inactive: -0.0539
2,B6,inactive: -0.0434

# Target: SARS-CoV-2 NSP1
# Experiment: as above
# Protocol: as §1
row,Binder,yeast fitness gain
1,B4,inactive: 0.0761

# Target: SARS-CoV-2 ORF8
# Experiment: as above
# Protocol: as §1
row,Binder,yeast fitness gain
1,B4,inactive: 0.0332
2,B6,inactive: 0.0347

# Target: SARS-CoV-2 NSP6
# Experiment: as above
# Protocol: as §1
row,Binder,yeast fitness gain
1,B5,inactive: 0.0577

# Target: SARS-CoV-2 NSP10
# Experiment: as above
# Protocol: as §1
row,Binder,yeast fitness gain
1,B6,inactive: -0.0143

# Target: SARS-CoV-2 NSP12
# Experiment: as above
# Protocol: as §1
row,Binder,yeast fitness gain
1,B6,inactive: -0.0866

# Target: SARS-CoV-2 NSP13
# Experiment: as above
# Protocol: as §1
row,Binder,yeast fitness gain
1,B6,inactive: -0.11

# Target: SARS-CoV-2 NSP2
# Experiment: as above
# Protocol: as §1
row,Binder,yeast fitness gain
1,B6,inactive: -0.171

# Target: SARS-CoV-2 ORF7B
# Experiment: as above
# Protocol: as §1
row,Binder,yeast fitness gain
1,B6,inactive: 0.0951

# Target: SARS-CoV-2 S
# Experiment: as above
# Protocol: as §1
row,Binder,yeast fitness gain
1,B6,inactive: -0.461
